Consider 26 compounds from the supplement of paper PMC10037445.

Each structure is given as a SMILES string. Over roughly 2,900 compounds, “NF-kB SEAP reporter activity, fold change vs agonist alone” has its median near 0.99; the highest 2% begin near 2.6. This is one part of the list.

The test system of assay [1] is RAW-Dual. Put plainly: NF-kB SEAP reporter activity, fold change vs agonist alone; higher = enhanced NF-kB activity. To be noted: library stock concentration (final ~1000-fold dilution): 10 mM. The gist of the method: (§1)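 Cytotoxic wells were those whose IncuCyte confluency was below 70% of agonist controls in both mask sets. The cells were RAW-Dual macrophages at 50,000 cells/well in DMEM on 384-well plates, dosed with 50 nL of library stock by pin tool, stimulated with a PRR agonist 1 h later, and kept at 37 °C, 5% CO2 for 20 hours. IRF and NF-κB reporter activity, as fold change over agonist-alone wells, came from supernatant read by QuantiLuc luminescence and QuantiBlue absorbance, respectively.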

Assay [2] relates to RAW-Dual. Put plainly: NF-kB SEAP reporter activity, fold change vs agonist alone; cytotoxicity flag (confluency mask): not cytotoxic; higher = enhanced NF-kB activity. Summed up:
as §1

Assay [3] deals with RAW-Dual. Put plainly: NF-kB SEAP reporter activity, fold change vs agonist alone; cytotoxicity flag (confluency mask): cytotoxic (confluency <70% of control); higher = enhanced NF-kB activity. Summed up:
as §1

Where [4] appears, read: cytotoxicity flag (confluency mask): not cytotoxic, agonist: Imiquimod (TLR7) […].
[5] abbreviates: cytotoxicity flag (confluency mask): not cytotoxic, agonist: MPLA (TLR4) […].
[6] abbreviates: agonist: ODN 1826 (TLR9) 0.5 ug/mL.
[7] abbreviates: agonist: Pam2CSK4 (TLR2/6) 0.1 ug/mL.
[8] abbreviates: agonist: Pam3CSK4 (TLR2/1) 0.1 ug/mL.

With `CC(C)CC(NC(=O)C(CCc1ccccc1)NC(=O)CN1CCOCC1)C(=O)NC(Cc1ccccc1)C(=O)NC(CC(C)C)C(=O)C1(C)CO1` (configuration not stated), the “NF-kB SEAP reporter activity” value in the assay on RAW-Dual [1] (setting [4]) worked out at 2.33; in the assay with RAW-Dual [1] (setting [5]), 0.832.

For the compound `CC(C)CC(NC(=O)C(CCc1ccccc1)NC(=O)CN1CCOCC1)C(=O)NC(Cc1ccccc1)C(=O)NC(CC(C)C)C(=O)C1(C)CO1` (configuration not stated) (library stock concentration (final ~1000-fold dilution): 10 mM), the “NF-kB SEAP reporter activity” value came out at 0.318 in the assay on RAW-Dual [2] (agonist: LPS (TLR4) 0.1 ug/mL), 1.18 in the assay with RAW-Dual [2] (setting [6]), 0.683 in the assay on RAW-Dual [2] (setting [7]) and 0.456 with RAW-Dual [2] (setting [8]).

In the case of `CC(c1cc2ccccc2s1)N(O)C(N)=O` (configuration not stated) (library stock concentration (final ~1000-fold dilution): 10 mM), the “NF-kB SEAP reporter activity” value in the assay with RAW-Dual [2] (agonist: LPS (TLR4) 0.1 ug/mL) was 1.23; with RAW-Dual [2] (setting [6]), 1.01; in the assay on RAW-Dual [2] (setting [7]) it was 0.914; in the assay with RAW-Dual [2] (setting [8]), 0.933.

With `CC(c1cc2ccccc2s1)N(O)C(N)=O` (configuration not stated), the results for the “NF-kB SEAP reporter activity” value in the assay with RAW-Dual [1] (setting [4]) and in the assay with RAW-Dual [1] (setting [5]) were 0.908 and 0.826, respectively.

For the compound `O=C(/C=C/c1ccc(O)c(O)c1/C=C/c1ccc(O)c(O)c1)OC(Cc1ccc(O)c(O)c1)C(=O)O` (configuration not stated), the “NF-kB SEAP reporter activity” value in the assay with RAW-Dual [1] (setting [4]) amounted to 0.405; in the assay with RAW-Dual [1] (setting [5]), 0.891.

On to `O=C(/C=C/c1ccc(O)c(O)c1/C=C/c1ccc(O)c(O)c1)OC(Cc1ccc(O)c(O)c1)C(=O)O` (configuration not stated) (library stock concentration (final ~1000-fold dilution): 10 mM), for which the “NF-kB SEAP reporter activity” value was 1.09 with RAW-Dual [2] (agonist: LPS (TLR4) 0.1 ug/mL), 0.836 in the assay on RAW-Dual [2] (setting [6]), 0.837 in the assay on RAW-Dual [2] (setting [7]) and 0.289 in the assay with RAW-Dual [2] (setting [8]).

For the compound `CC1=C(C(=O)OC2CCCCC2)C(c2ccc([N+](=O)[O-])cc2)C2=C(CC(C)(C)CC2=O)N1` (configuration not stated), the “NF-kB SEAP reporter activity” value in the assay with RAW-Dual [1] (setting [4]) stood at 1.19; with RAW-Dual [1] (setting [5]) it was 0.918.

In the case of `CC1=C(C(=O)OC2CCCCC2)C(c2ccc([N+](=O)[O-])cc2)C2=C(CC(C)(C)CC2=O)N1` (configuration not stated) (library stock concentration (final ~1000-fold dilution): 10 mM), the “NF-kB SEAP reporter activity” value in the assay with RAW-Dual [2] (agonist: LPS (TLR4) 0.1 ug/mL) was determined as 0.672; with RAW-Dual [2] (setting [6]), 0.674; with RAW-Dual [2] (setting [7]), 0.298; in the assay on RAW-Dual [2] (setting [8]) it was 0.335.

Turning to `CC=CCC(C)C(O)C1C(=O)NC(CC)C(=O)N(C)CC(=O)N(C)C(CC(C)C)C(=O)NC(C(C)C)C(=O)N(C)C(CC(C)C)C(=O)NC(C)C(=O)NC(C)C(=O)N(C)C(CC(C)C)C(=O)N(C)C(CC(C)C)C(=O)N(C)C(C(C)C)C(=O)N1C` (configuration not stated) (library stock concentration (final ~1000-fold dilution): 10 mM), the “NF-kB SEAP reporter activity” value with RAW-Dual [2] (agonist: LPS (TLR4) 0.1 ug/mL) turned out to be 1.87; in the assay on RAW-Dual [2] (setting [6]), 1.27; with RAW-Dual [2] (setting [7]), 0.462; with RAW-Dual [2] (setting [8]) it was 0.948.

On to `CC=CCC(C)C(O)C1C(=O)NC(CC)C(=O)N(C)CC(=O)N(C)C(CC(C)C)C(=O)NC(C(C)C)C(=O)N(C)C(CC(C)C)C(=O)NC(C)C(=O)NC(C)C(=O)N(C)C(CC(C)C)C(=O)N(C)C(CC(C)C)C(=O)N(C)C(C(C)C)C(=O)N1C` (configuration not stated), for which the “NF-kB SEAP reporter activity” value amounted to 1.83 with RAW-Dual [1] (setting [4]) and 1.62 in the assay on RAW-Dual [1] (setting [5]).

For `COc1ccc(C(NC(=O)c2cnc(-c3cccnn3)nc2O)c2ccc(OC)cc2)cc1`, the “NF-kB SEAP reporter activity” value turned out to be 0.974 in the assay with RAW-Dual [1] (setting [4]) and 1.03 in the assay on RAW-Dual [1] (setting [5]).

In the case of `COc1ccc(C(NC(=O)c2cnc(-c3cccnn3)nc2O)c2ccc(OC)cc2)cc1` (library stock concentration (final ~1000-fold dilution): 10 mM), the “NF-kB SEAP reporter activity” value with RAW-Dual [2] (agonist: LPS (TLR4) 0.1 ug/mL) was found to be 2.9; with RAW-Dual [2] (setting [6]), 0.861; in the assay on RAW-Dual [2] (setting [7]), 0.898; in the assay with RAW-Dual [2] (setting [8]), 1.02.

On to `CCOc1cc(C(CS(C)(=O)=O)N2C(=O)c3cccc(NC(C)=O)c3C2=O)ccc1OC` (configuration not stated) (library stock concentration (final ~1000-fold dilution): 10 mM), for which the “NF-kB SEAP reporter activity” value in the assay on RAW-Dual [2] (agonist: LPS (TLR4) 0.1 ug/mL) was found to be 1.59; in the assay with RAW-Dual [2] (setting [6]) it was 1.87; in the assay on RAW-Dual [2] (setting [7]), 1.47; in the assay on RAW-Dual [2] (setting [8]) it was 1.72.

As for `CCOc1cc(C(CS(C)(=O)=O)N2C(=O)c3cccc(NC(C)=O)c3C2=O)ccc1OC` (configuration not stated), the “NF-kB SEAP reporter activity” value with RAW-Dual [1] (setting [4]) amounted to 1.12; with RAW-Dual [1] (setting [5]), 1.26.

As for `N#CN=C(NCCCCCCOc1ccc(Cl)cc1)Nc1ccncc1` (library stock concentration (final ~1000-fold dilution): 10 mM), the “NF-kB SEAP reporter activity” value was determined as 0.63 with RAW-Dual [2] (agonist: LPS (TLR4) 0.1 ug/mL), 0.709 in the assay with RAW-Dual [2] (setting [6]), 0.404 in the assay on RAW-Dual [2] (setting [7]) and 0.467 in the assay with RAW-Dual [2] (setting [8]).

As to `N#CN=C(NCCCCCCOc1ccc(Cl)cc1)Nc1ccncc1`, the “NF-kB SEAP reporter activity” value in the assay on RAW-Dual [1] (setting [4]) was determined as 0.814; in the assay on RAW-Dual [1] (setting [5]), 0.91.

`O=C(O)/C(S)=C/c1c[nH]c2ccc(F)cc12` (library stock concentration (final ~1000-fold dilution): 10 mM): the “NF-kB SEAP reporter activity” value in the assay on RAW-Dual [2] (agonist: LPS (TLR4) 0.1 ug/mL) came to 0.886; in the assay on RAW-Dual [2] (setting [6]), 0.864; in the assay on RAW-Dual [2] (setting [7]), 0.988; in the assay with RAW-Dual [2] (setting [8]) it was 0.934.

Consider `O=C(O)/C(S)=C/c1c[nH]c2ccc(F)cc12`, for which the “NF-kB SEAP reporter activity” value amounted to 0.865 with RAW-Dual [1] (setting [4]) and 1.08 with RAW-Dual [1] (setting [5]).

Take `CCNC(=O)c1noc(-c2cc(Cl)c(O)cc2O)c1-c1ccc(OC)cc1` (library stock concentration (final ~1000-fold dilution): 10 mM): the “NF-kB SEAP reporter activity” value amounted to 0.229 in the assay on RAW-Dual [2] (agonist: LPS (TLR4) 0.1 ug/mL), 0.227 with RAW-Dual [2] (setting [6]), 0.0828 in the assay on RAW-Dual [2] (setting [7]) and 0.145 in the assay with RAW-Dual [2] (setting [8]).

`CCNC(=O)c1noc(-c2cc(Cl)c(O)cc2O)c1-c1ccc(OC)cc1`: the entries for the “NF-kB SEAP reporter activity” value in the assay with RAW-Dual [1] (setting [4]) and in the assay with RAW-Dual [1] (setting [5]) were 0.165 and 0.374, respectively.

Regarding `Cl.Cl.Cl.Cl.Nc1cc(N)c(N)cc1N`, in the assay with RAW-Dual [1] (cytotoxicity flag (confluency mask): cytotoxic (confluency <70% of control), agonist: MPLA (TLR4) […]), the “NF-kB SEAP reporter activity” value was 0.202.

`Cl.Cl.Cl.Cl.Nc1cc(N)c(N)cc1N` (library stock concentration (final ~1000-fold dilution): 10 mM): the “NF-kB SEAP reporter activity” value in the assay with RAW-Dual [3] (agonist: LPS (TLR4) 0.1 ug/mL) was 0.239; in the assay on RAW-Dual [3] (setting [6]), 0.175; with RAW-Dual [3] (setting [7]), 0.0867; in the assay on RAW-Dual [3] (setting [8]) it was 0.109.

Regarding `CCOc1nc2cccc(C(=O)O)c2n1Cc1ccc(-c2ccccc2-c2nc(=O)o[nH]2)cc1`, the “NF-kB SEAP reporter activity” value with RAW-Dual [1] (setting [4]) amounted to 0.995; in the assay on RAW-Dual [1] (setting [5]) it was 0.966.

On to `CCOc1nc2cccc(C(=O)O)c2n1Cc1ccc(-c2ccccc2-c2nc(=O)o[nH]2)cc1` (library stock concentration (final ~1000-fold dilution): 10 mM), for which the “NF-kB SEAP reporter activity” value is 1.38 in the assay with RAW-Dual [2] (agonist: LPS (TLR4) 0.1 ug/mL), 1.05 in the assay with RAW-Dual [2] (setting [6]), 1.2 in the assay on RAW-Dual [2] (setting [7]) and 1.05 in the assay on RAW-Dual [2] (setting [8]).

For `Cn1ncc(Cl)c1-c1cc(C(=O)NC(CN)Cc2cccc(F)c2)sc1Cl` (configuration not stated), the results for the “NF-kB SEAP reporter activity” value with RAW-Dual [1] (setting [4]) and in the assay with RAW-Dual [1] (setting [5]) were 1.39 and 1.77, respectively.

As to `Cn1ncc(Cl)c1-c1cc(C(=O)NC(CN)Cc2cccc(F)c2)sc1Cl` (configuration not stated) (library stock concentration (final ~1000-fold dilution): 10 mM), the “NF-kB SEAP reporter activity” value stood at 1.53 in the assay on RAW-Dual [2] (agonist: LPS (TLR4) 0.1 ug/mL), 1.27 with RAW-Dual [2] (setting [6]), 1 in the assay on RAW-Dual [2] (setting [7]) and 1.15 in the assay on RAW-Dual [2] (setting [8]).
